Over roughly 33,000 sequences, “E-score (-0.5 to 0.5)” has its median near -0.032; the highest 2% begin near 0.36. The list shows a part of the results.
What follows are sequences tested against T1, Sko1 (UniProt Q02100) (assay: PBM E-score (8-mer binding enrichment) (E-score (-0.5 to 0.5)); higher = stronger / more preferred TF binding; most listed sequences are background and not binding sites). Conditions: protein concentration: 200 nM; construct: GST-full length.
T1 sequence: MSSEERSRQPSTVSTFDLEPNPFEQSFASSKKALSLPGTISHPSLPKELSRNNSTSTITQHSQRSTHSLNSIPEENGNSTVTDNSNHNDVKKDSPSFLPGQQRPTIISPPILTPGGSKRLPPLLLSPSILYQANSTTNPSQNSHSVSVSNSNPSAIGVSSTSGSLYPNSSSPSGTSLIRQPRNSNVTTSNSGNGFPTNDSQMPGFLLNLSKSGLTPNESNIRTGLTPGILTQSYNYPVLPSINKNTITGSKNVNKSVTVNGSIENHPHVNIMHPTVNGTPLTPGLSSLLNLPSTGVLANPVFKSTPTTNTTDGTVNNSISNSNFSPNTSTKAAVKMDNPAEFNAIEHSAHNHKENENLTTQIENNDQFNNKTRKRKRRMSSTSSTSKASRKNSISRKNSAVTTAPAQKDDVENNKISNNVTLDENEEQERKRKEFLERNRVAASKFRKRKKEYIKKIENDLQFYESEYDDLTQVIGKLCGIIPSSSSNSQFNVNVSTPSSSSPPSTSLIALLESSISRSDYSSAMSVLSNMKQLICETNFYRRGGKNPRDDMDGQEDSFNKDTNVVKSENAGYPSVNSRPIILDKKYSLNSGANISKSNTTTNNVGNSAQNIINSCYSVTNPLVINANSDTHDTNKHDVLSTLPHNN
How it was run: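 The E-score, a modified Wilcoxon-Mann-Whitney statistic, was computed by the Universal PBM Analysis Suite for every ungapped eight-base word pooled with its reverse complement. Scans behind it were normalised with masliner after bound GST-tagged yeast transcription factors were detected with fluorescent anti-GST. The proteins, at about 100-200 nM, had been applied to universal all-10-mer Agilent arrays made double-stranded by primer extension.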

Row | Sequence | PBM E-score
1 | AATGCCGC | -0.268
2 | CACGACTC | 0.0715
3 | GAACAACC | -0.0935
4 | CAAACTTG | -0.0458
5 | CAATGCTC | 0.0911
6 | ATTGTAAG | -0.0531
7 | GGATCTGA | -0.128
8 | ACCCTGAC | -0.246
9 | ATTCGTCA | 0.464
10 | AGTATCTA | 0.138
11 | CCTTAGGC | -0.187
12 | AGTGTGCG | -0.0849
13 | ACGATTCC | 0.0509
14 | ATGGTGTC | -0.0613
15 | ATGGTATC | 0.0937
16 | GTTATTGA | 0.169
17 | CAATGGGA | -0.177
18 | CGCCTAGA | -0.122
19 | CATAGGCA | -0.0947
20 | GGGAAGTA | -0.132
21 | TCCCCGAA | -0.293
22 | GGTCCTAA | -0.00481
23 | ACGACTCA | 0.0692
24 | CAATCGCA | 0.0114
25 | CCGCTGTA | -0.226

Row | Sequence | PBM E-score
26 | CGCCCACG | -0.0731
27 | GACGCATC | 0.184
28 | GTCACTTA | 0.286
29 | ATGGGCCG | -0.279
30 | TTAATTAA | 0.0598
31 | AAGATTAT | 0.0805
32 | AATTTAGA | 0.202
33 | GATTATTA | 0.149
34 | CCGGGTCC | -0.333
35 | TAATACAA | 0.181
36 | GTTGCAGA | -0.0108
37 | TTCTACAA | 0.063
38 | TCCCTTAA | -0.0451
39 | TAGGTATA | 0.105
40 | GAATGGAC | 0.0685
41 | CCGTATTA | 0.152
42 | AAATATGC | -0.00723
43 | AAATCCCA | -0.0596
44 | CCAACCGC | -0.0986
45 | TCCGCCCA | -0.168
46 | GGTGGCTA | -0.152
47 | TCAAGTAA | 0.197
48 | CTTAAATC | 0.158
49 | GCGTTCAA | 0.0896
50 | ATAAGCCG | -0.187

Row | Sequence | PBM E-score
51 | CTCGTTCA | -0.0308
52 | CCTAAAAA | 0.0683
53 | TGGCAAAA | 0.0855
54 | CCAGTTAC | -0.151
55 | ATCCCAGG | -0.305
56 | ACGAAGTG | 0.171
57 | ATTTGTGG | 0.0449
58 | ACAATTAT | 0.245
59 | ACCAGACT | -0.143
60 | ATCAACTG | -0.0317
61 | ACAGCCTA | -0.0248
62 | GCCGTTAA | -0.111
63 | AAGAGGTC | -0.144
64 | CTTTGCAC | 0.0348
65 | ACATAGCG | 0.0139
66 | GCATCCTA | -0.0847
67 | CAGGAGAC | -0.0473
68 | CCCCTATC | -0.218
69 | GAAGAGCC | -0.252
70 | AGTCCGTA | -0.218
71 | ATATAGTG | 0.099
72 | ACCGCACG | 0.0615
73 | ACTCGCAC | -0.0948
74 | AATGTTCC | 0.0293
75 | CCCGTCGG | -0.0853

Row | Sequence | PBM E-score
76 | CAATTGCG | 0.237
77 | GTTCACTA | -0.0269
78 | GCCCCAAC | -0.0431
79 | AGGTCATC | 0.22
80 | AAAGGTTC | -0.115
81 | TCAGTGCA | -0.0968
82 | CTTGGTCC | -0.236
83 | CACAACAG | -0.188
84 | AGAATACG | 0.304
85 | AAGGGAAG | 0.0269
86 | CAGCAGGA | -0.147
87 | AACCGGGA | -0.219
88 | GAACACAC | -0.0651
89 | CAATGGTC | -0.176
90 | CAAATCCG | -0.027
91 | AAGGTGTA | 0.105
92 | CACTGCCA | -0.0172
93 | GCGACTAC | -0.14
94 | ACAACTCC | -0.135
95 | ACTGGCTG | -0.184
96 | AAAGCATT | 0.103
97 | CCATGCAA | 0.0552
98 | GGGGGACC | -0.319
99 | CGATCTAA | 0.0385
100 | AACCCAGT | -0.158

Row | Sequence | PBM E-score
101 | AGAAGTTC | -0.0839
102 | CTGCTTCC | -0.269
103 | CTATACGC | 0.173
104 | AATGCTCC | -0.241
105 | AGCCTGGG | -0.168
106 | CAACCTAG | -0.163
107 | CAGTCCCA | -0.23
108 | ATAATGGC | 0.184
109 | GTCGAAAA | 0.159
110 | ATCCGGGG | -0.265
111 | TGGCGACA | -0.0175
112 | AATTAACA | 0.216
113 | TAAAACTA | 0.164
114 | AGCTGTGA | 0.0824
115 | CTTTAGTA | -0.00187
116 | AGAATGAT | 0.157
117 | AAGTACTC | -0.119
118 | CAATAGTA | 0.0317
119 | GTTCGTAA | 0.355
120 | GTTGTCCA | -0.0227
121 | AAATCCAG | -0.0699
122 | ACGCTTAT | -0.0333
123 | GACCAGGC | -0.202
124 | AGAGACAG | -0.258
125 | AGATTAGC | -0.0226

Row | Sequence | PBM E-score
126 | GTGCAGAA | 0.188
127 | TAATTCCA | 0.219
128 | ATTTGGAA | -0.001
129 | CTAGGATC | -0.255
130 | ATAGGGTA | -0.118
131 | GAGTCCTA | -0.133
132 | GCAGAGCA | -0.179
133 | AAGGTCAA | -0.0521
134 | AACTCCAC | 0.00529
135 | CTTGCGAC | -0.193
136 | CGGCCCCA | -0.335
137 | ATCGAGCC | -0.182
138 | GCTTAACA | -0.0101
139 | TGAAGGCA | -0.116
140 | CATGCATA | 0.201
141 | TCGGTGCA | -0.219
142 | TAGTGGAA | -0.149
143 | CTCACATA | 0.0747
144 | CGGCGATC | -0.124
145 | CCGGCAGA | -0.396
146 | GCGCCGGA | -0.0799
147 | ACTTTCTC | -0.153
148 | GTCGATCA | -0.0654
149 | GCCCGGTA | -0.333
150 | GGTTTCAA | -0.0777

Row | Sequence | PBM E-score
151 | ATTCGTTA | 0.21
152 | AATCTTGA | 0.126
153 | CGTAAATA | 0.352
154 | ATTTTCCG | 0.0868
155 | ATTGAGCG | -0.109
156 | AATGCATG | 0.158
157 | CGGACTGC | -0.0639
158 | CAGTTAAC | -0.0202
159 | GCTGCCCC | -0.222
160 | ACCCATAA | -0.118
161 | AGGCATGG | -0.112
162 | AGATCGAG | -0.117
163 | GCCCCCTA | -0.278
164 | AGTGCCTG | -0.243
165 | GGAAGTCA | 0.0457
166 | AGCATGCC | -0.196
167 | CGCCCGCA | -0.0611
168 | CACGCTAA | -0.072
169 | AATGCTTA | -0.1
170 | GGGGTCAA | -0.0777
171 | AAACGAGA | -0.0276
172 | CCCTGTTC | -0.285

From the supplement of paper PMC3334620
